Measured values reported in the RNAGym collection of RNA variant scans (doi:10.7554/elife.90254).
The source gives no read counts; variants with many changes may rest on few reads.

B1: LINE1-mini (parent)
chain: GGCAGAGCUCAACACAGCGUGGCAAAGUGGCUGUGGCUAGACUGCC

Variants of: B1
Assay: self-cleavage, relative activity (ratio to wild type); higher = more cleavage; in vitro, sequencing; the parent is a self-cleaving ribozyme

Row | Variant | self-cleavage
1 | G5U G17A C18A A39G G44U | 0.04
2 | G5C U20G G22C | 0.05
3 | G5U U9A A26U G35C | 0.06
4 | G5U U9C G27U C31A | 0.03
5 | G5U C10U G21A C23A C37G | 0.01
6 | G5U A16U G36U | 0.03
7 | G5U C10U C46U | 0.03
8 | G5U C18A G27C G40A | 0.07
9 | G5U A11G A14C A24C A26C A39U | 0.02
10 | G5U A11G G21U A25U U43C | 0.11
11 | G5U A12U A26U G36C | 0.03
12 | G5C U20C A39U C46G | 0.29
13 | G5U C8A U9C | 0.1
14 | G5U G7U A12C A25C | 0.02
15 | G5U C15A A16U A25U | 0.01
16 | G5U C10A C46A | 0
17 | G5C G7U G33U C45U | 0.17
18 | G5U G33U U34A C46A | 0.02
19 | G5U U9G A11U G27C G29A | 0
20 | G5U C8A G27U | 0.68
21 | G5U A12U A25U G27C U32C | 0.05
22 | G5U G7A G30U | 0.08
23 | G5U A16U C37U | 0.05
24 | G5U A11C A14C C15A G29U | 0.02

Row | Variant | self-cleavage
25 | G5C G30A C31G | 0.02
26 | G5U G7C U43C | 0.09
27 | G5C U28A C42G G44U | 0.02
28 | G5U G7C U34A | 0.02
29 | G5U G7U G17A G29A | 0.09
30 | G5U C10A G17C A25C G29U C31A | 0.07
31 | G5U C8G C13A C15G C18G C23G C42U | 0.02
32 | G5C G21U C37U C46A | 0.02
33 | G5U C10G G27C | 0.02
34 | G5U A11C A24C C37A G40U | 0.02
35 | G5U A25U G33A | 0.04
36 | G5U A14G G22A | 0.43
37 | G5C G17A A25U | 0.02
38 | G5U C31U C37U | 0.09
39 | G5U G21A G29C G33U G35C G36A | 0.04
40 | G5U A24G A25U C42A | 0.03
41 | G5U C10G G21U | 0.01
42 | G5U G17U C18A G21A U34A | 0.03
43 | G5U G17U G22A A25C | 0.01
44 | G5U U9G C15G C31U G36U | 0.06
45 | G5U G17C G35U | 0.02
46 | G5C G17A C37A | 0.02
47 | G5U G7U G22A | 0.29
48 | G5C U9C G29A U34C | 0.03

Row | Variant | self-cleavage
49 | G5U A6G U34A | 0.04
50 | G5U G17C G22A G29C | 0.03
51 | G5C G21A G30U C42U C46A | 0.07
52 | G5C G21U C42G | 0.27
53 | G5U A12C U34C | 0.03
54 | G5U G17C G36U | 0.04
55 | G5C G33A U43A G44U | 0.05
56 | G5U A14U C15U G19C G36U | 0.04
57 | G5C G22U G30U A39G | 0.05
58 | G5U G29C C42A C46G | 0.14
59 | G5U U28G C31G C45A | 0.01
60 | G5U G7C A16U | 0.1
61 | G5U A16C G21A A41C | 0
62 | G5U G35U C42G | 0.04
63 | G5C G17C G22U U32G U34A U43G C45A | 0.09
64 | G5U A25U U34G | 0.05
65 | G5U G21A A25U U34G C46A | 0.02
66 | G5C G44C C46A | 0.14
67 | G5U G7C G19C U32C | 0.11
68 | G5U C8U C13G A14C | 0.07
69 | G5C U9A U20C U38C | 0.09
70 | G5C U28C U34G G44A | 0.03
71 | G5U G21U G29U C46U | 0.07
72 | G5U C13A G35A C42A | 0.08

Row | Variant | self-cleavage
73 | G5U C15G A24C G27U G40U | 0.01
74 | G5U C18U A24C U28C U34A G40C | 0.01
75 | G5U G17A C23A C31G C37G | 0.02
76 | G5U C18G G35C U43C | 0
77 | A6C A12G A24U U38A | 0.01
78 | A6C A11U C46G | 0.11
79 | G5C G7A G40C C46U | 0.16
80 | G5C U9A G35C U38G | 0.08
81 | G5U A39G C46A | 0.02
82 | G5U C13A U43C | 0.05
83 | G5U G7U A11C G19A C37A | 0.02
84 | G5U C8U G33U A39C | 0.06
85 | G5U G21U U43C | 0.08
86 | G5U G21C A39U U43G | 0.25
87 | G5C G7U G22U U28A G40A | 0.3
88 | G5U A6G G7C G21U | 0.04
89 | G5C G21A G27U | 0.07
90 | G5U C42U C46G | 0.05
91 | G5U C8A C37U | 0.31
92 | G5C G21A G40A | 0.1
93 | G5U C13A C18A U20C | 0.03
94 | G5U A6U G44A | 0.6
95 | G5U C18A U34G | 0.06
96 | G5U C23U A41G C46A | 0.06

Row | Variant | self-cleavage
97 | G5U G27U U28A | 0.05
98 | G5C U28C G33U A39C G40A | 0.06
99 | G5C G7A G27U C37A | 0.17
100 | G5U G29A U34C C42A C46U | 0.26
101 | G5U C15U G17U | 0.06
102 | G5U C13U A25G | 0
103 | G5U C13U A25U | 0.08
104 | G5U G22A A24C A25U U32G A39U | 0.28
105 | G5U A11U G22A | 0.05
106 | G5U G21U A24U | 0.03
107 | G5U C8A C10A A11C U38G | 0
108 | G5U C15G U28G | 0.02
109 | G5U U9G A14G C42A | 0.06
110 | G5U U9C C46G | 0.03
111 | G5U A26G C37G A39G | 0.01
112 | G5C U9C A16G C23U | 0
113 | G5U C23U G40C C42A | 0.03
114 | G5C G33A C37A A41G | 0.02
115 | G5U C13U C46U | 0.13
116 | G5U U9A G29A U43C | 0.01
117 | G5U G17C A39G | 0.09
118 | G5U G22A U32C G44A | 0.04
119 | G5U A24U G30U | 0.05
120 | G5U G30A G35U C45U | 0.05

Row | Variant | self-cleavage
121 | G5U C23U A26G A39G A41C | 0.04
122 | G5U G21U G29U | 0.06
123 | G5U C18A C42G | 0.02
124 | G5U C10U C18A U34A | 0.02
125 | G5U G30C A39C G40A | 0.03
126 | G5U C13G U20A | 0.01
127 | G5U G21U G30U U43C | 0.01
128 | G5U U9A U20A | 0.07
129 | G5U A12C G33A C37G | 0.02
130 | G5C G22U G33U | 0.03
131 | G5C G22U G33C | 0.06
132 | G5C G19U A24U U34C | 0.01
133 | G5C G27C A41C | 0.05
134 | G5U A26C G29C | 0.04
135 | G5U A6C C13A | 0.05
136 | G5U G19A A26U G40A | 0.06
137 | G5U A6U C8A A14U G29C C31A | 0.12
138 | G5U C8G U34A U43C | 0
139 | G5C G22U A24U | 0.03
140 | G5U C13A G22U G33A A39C | 0.01
141 | G5C U20A C45U | 0.12
142 | G5U C31U G40A A41C | 0.01
143 | G5C G29A G35A C37A | 0.11
144 | G5U A12G U38A C45A | 0.01

Row | Variant | self-cleavage
145 | G5U G22A A39G | 0.04
146 | A6C A12G A16C G22C A24G G29A C31G | 0.02
147 | G5U C37A G44A | 0.06
148 | G5C G27A G30C G33U | 0.06
149 | G5U G19A G40U | 0.06
150 | G5U G17U G21A | 0.06
151 | G5U C10G C13U | 0.01
152 | G5U C13U G22U A39G G40C | 0.04
153 | G5U G19U C23A G36A | 0.03
154 | G5U C10A G44U | 0.01
155 | G5U C10A G19C A25U | 0.03
156 | G5C G29C U43C | 0.02
157 | G5U C18G G30A U32G G36U | 0.02
158 | G5C G29U A39C | 0.05
159 | G5U G36U C42G | 0
160 | G5U U32G G40C | 0.07
161 | G5U A25G G29C | 0.01
162 | G5C U20C C23G C45G C46U | 0.04
163 | G5C G7C C37A A39G C46U | 0.01
164 | G5U G36U G40C | 0.03
165 | G5U C10G A11U C18G G29C | 0.01
166 | G5U C13G G33U G35U | 0.09
167 | G5U U20G U32G C37G | 0.02
